Consider 43 compounds from PMC4336329 (PLoS ONE, 2015).

In all, about 310,000 compounds went through this assay and about 14,000 (4.5%) showed an effect of 50% or more. Effects have a minus sign here. Some of the results follow.
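Also: peak tail current of the secondary pulse compared with the same well before compound.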

In the test the target is human ether-à-go-go-related gene (hERG) potassium channel (human, UniProt Q12809). The test is described as follows: primary screen, population patch clamp on CHO cells stably expressing hERG.
Sequence of human ether-à-go-go-related gene (hERG) potassium channel (Q12809 whole entry, looked up): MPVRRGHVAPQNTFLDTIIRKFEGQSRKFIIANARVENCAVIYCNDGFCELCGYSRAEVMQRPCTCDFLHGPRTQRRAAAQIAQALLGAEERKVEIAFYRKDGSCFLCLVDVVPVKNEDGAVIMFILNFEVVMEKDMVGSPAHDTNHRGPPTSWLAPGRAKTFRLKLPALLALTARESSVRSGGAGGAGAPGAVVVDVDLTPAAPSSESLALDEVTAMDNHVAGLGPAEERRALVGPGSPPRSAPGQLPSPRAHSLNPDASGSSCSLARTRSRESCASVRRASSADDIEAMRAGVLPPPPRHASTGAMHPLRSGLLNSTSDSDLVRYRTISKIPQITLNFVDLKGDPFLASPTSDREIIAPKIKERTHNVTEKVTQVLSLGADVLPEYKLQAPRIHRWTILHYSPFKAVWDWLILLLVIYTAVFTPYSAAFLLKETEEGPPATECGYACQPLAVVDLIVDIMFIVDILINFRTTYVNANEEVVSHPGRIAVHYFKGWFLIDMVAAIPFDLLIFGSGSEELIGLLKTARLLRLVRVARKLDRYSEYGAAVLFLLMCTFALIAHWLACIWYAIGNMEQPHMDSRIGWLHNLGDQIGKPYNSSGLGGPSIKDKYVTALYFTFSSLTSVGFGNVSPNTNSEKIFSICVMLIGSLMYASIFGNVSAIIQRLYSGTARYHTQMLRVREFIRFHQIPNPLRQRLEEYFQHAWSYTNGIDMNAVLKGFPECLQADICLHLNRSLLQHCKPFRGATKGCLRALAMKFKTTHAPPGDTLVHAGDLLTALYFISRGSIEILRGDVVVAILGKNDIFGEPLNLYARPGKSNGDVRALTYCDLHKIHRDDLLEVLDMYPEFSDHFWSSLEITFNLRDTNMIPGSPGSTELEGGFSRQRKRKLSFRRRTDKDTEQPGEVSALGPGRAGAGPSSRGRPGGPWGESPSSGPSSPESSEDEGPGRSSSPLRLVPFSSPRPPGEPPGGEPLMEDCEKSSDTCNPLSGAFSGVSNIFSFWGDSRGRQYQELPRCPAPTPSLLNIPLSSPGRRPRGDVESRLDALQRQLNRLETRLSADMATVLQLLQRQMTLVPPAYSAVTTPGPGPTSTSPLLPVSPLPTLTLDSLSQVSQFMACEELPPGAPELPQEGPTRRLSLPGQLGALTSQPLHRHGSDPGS
As for `COc1ccc(OC)c(/C=N/NC(=O)C(=O)N2CCCCCC2)c1`, the “hERG current change (%, negative = inhibition) at 10uM” value was determined as 10.5%.
As for `O=C(Cn1ncc2ccsc2c1=O)N1CCC2(CC1)OCCO2`, the “hERG current change (%, negative = inhibition) at 10uM” value is recorded as -9.23%.
In the case of `COc1ccc(CCNC(=O)c2cccc(S(=O)(=O)N3CCCCCC3)c2)cc1`, the “hERG current change (%, negative = inhibition) at 10uM” value was -26.5%.
The figure for `CC(/C=C/c1ccc(OCc2ccccc2)cc1)=N\O` is -2.94%; for `COc1cc(OC)c([C@H]2C=C(C)[C@H]3C[C@@H]2C3(C)C)c(OC)c1` it is 24.3%; for `O=C(Nc1ccccn1)C1COc2ccccc2O1` (stereo not shown) it is 16.1%.
As to `O=C(Nc1ccccc1Cl)OC1CCCCC1`, the “hERG current change (%, negative = inhibition) at 10uM” value was found to be 22.7%.
For `Br.CC(C)=NNc1nc(-c2ccc(N3C(=O)CCC3=O)cc2)cs1`, the “hERG current change (%, negative = inhibition) at 10uM” value is given as 15.3%.
As for `CC1CCCN(Cc2csc(N)n2)C1` (stereo not shown), the “hERG current change (%, negative = inhibition) at 10uM” value was 5.03%.
For `CC1CN(C(=O)c2cccc(S(=O)(=O)N3CCN(c4ccccc4)CC3)c2)CC(C)O1` (stereo not shown), the “hERG current change (%, negative = inhibition) at 10uM” value is -29.9%.
On to `CCCCN(CC)CCNC(=O)C1CCCN(S(=O)(=O)c2cccc3nsnc23)C1` (stereo not shown), for which the “hERG current change (%, negative = inhibition) at 10uM” value is given as -33.8%.
In the case of `CCc1ccc(NC(=O)CCN2C(=O)c3cccnc3C2=O)cc1` it was 4.78%; in that of `O=C(O)c1cccc(NC(=O)c2ccc(CN3C(=O)c4ccccc4C3=O)cc2)c1`, 10.5%.
For `COc1cccc(C(=O)NCc2ccc(N3CCN(C(=O)OC(C)(C)C)CC3)cc2)c1`, the “hERG current change (%, negative = inhibition) at 10uM” value is -5.42%.
On to `COc1cc(SC)ccc1C(=O)N(Cc1ccccc1)c1ccccn1`, for which the “hERG current change (%, negative = inhibition) at 10uM” value is given as -10.2%.
As to `COc1ccccc1Cn1nnc2c(=O)[nH]c(C3CCN(C(=O)c4ccccc4Cl)CC3)nc21`, the “hERG current change (%, negative = inhibition) at 10uM” value came to 12.9%.
As for `CCN(CC(=O)Nc1ccc2c(c1)OCCO2)C(=O)C(C)Oc1ccc(Cl)cc1` (stereo not shown), the “hERG current change (%, negative = inhibition) at 10uM” value was 11.8%.
As for `O=C(Cc1ccc(Br)cc1)Nc1ccc(S(=O)(=O)NCC2CCCO2)cc1` (stereo not shown), the “hERG current change (%, negative = inhibition) at 10uM” value is -2.27%.
For the compound `C/C(Cc1ccccc1)=N\NC(=O)CNC(=O)c1cccc(F)c1`, the “hERG current change (%, negative = inhibition) at 10uM” value is reported as 2.42%.
Consider `CCOC(=O)/C(=N\Nc1ccccc1Cl)N1CCN(c2ccccc2OC)CC1`, for which the “hERG current change (%, negative = inhibition) at 10uM” value is reported as 16.5%.
As for `N#Cc1cccc(S(=O)(=O)NCC(=O)NCCCc2ccccc2)c1`, the “hERG current change (%, negative = inhibition) at 10uM” value came out at 0.461%.
For the compound `Cc1ccc(C(=O)CN2CCC(NC(=O)C3CCCCC3)CC2)cc1`, the “hERG current change (%, negative = inhibition) at 10uM” value is -15.3%.
In the case of `CC1=CC(C)(C)N(C)C(=O)N1c1ccc(Cl)cc1` it was 13%; in that of `C=CCNC(=S)N1CCN(S(=O)(=O)c2ccc(C)cc2)CC1`, -5.13%; in that of `COc1cccc(N=Nc2ccc3cccnc3c2O)c1`, -47.7%.
On to `Cn1c(=O)c2c(nc(SCC(=O)NC34CC5CC(CC(C5)C3)C4)n2C)n(C)c1=O`, for which the “hERG current change (%, negative = inhibition) at 10uM” value is -21.8%.
Regarding `CCOc1ccc2c(c1)C(N(CCN1CCOCC1)C(=S)Nc1ccccc1OC)CC(C)(C)O2` (stereo not shown), the “hERG current change (%, negative = inhibition) at 10uM” value is recorded as -24.9%.
The figure for `Cc1cccc(NC2=C/C(=N/S(=O)(=O)c3cccs3)c3ccccc3C2=O)c1` is 11.6%.
Regarding `CN1CCN(C(=O)/C(=C/c2cn(S(=O)(=O)N(C)C)c3ccccc23)NC(=O)c2ccccc2)CC1`, the “hERG current change (%, negative = inhibition) at 10uM” value is 0.665%.
On to `COCCN(C(=O)CN1CCc2ccccc21)c1c(N)n(Cc2ccccc2)c(=O)[nH]c1=O`, for which the “hERG current change (%, negative = inhibition) at 10uM” value is recorded as 5.33%.
The figure for `COC(=O)C1CCN(C(=O)c2ccc3oc(Cc4ccc(Cl)cc4)nc3c2)CC1` is -20.5%; for `CC(C)CN(C(=O)CCNC(=O)c1ccccc1Cl)C1CCS(=O)(=O)C1` (stereo not shown) it is -1.75%; for `Cc1ccc(C(=O)N2CCN(c3ncccn3)CC2)cc1` it is 12.6%.
`OCCN1CCOCCOc2ccccc2OCCOCC1`: the “hERG current change (%, negative = inhibition) at 10uM” value worked out at 1.57%.
Regarding `CC1CC1c1ccc(/C=C(\C#N)C(=O)Nc2ccc(Cl)cc2)o1` (stereo not shown), the “hERG current change (%, negative = inhibition) at 10uM” value stood at 15.1%.
On to `c1csc(CN2CCN(Cc3cccs3)C2c2cccs2)c1`, for which the “hERG current change (%, negative = inhibition) at 10uM” value is -14.3%.
In the case of `COc1cc2c(cc1OC)CN(Cc1cc(=O)n3c(-c4ccccc4)csc3n1)CC2` it was -6.01%; in that of `C/C(=N\Nc1cccc2cccnc12)c1ccc(C)cc1`, -5.89%.
The figure for `CC1=C(C(=O)OCc2ccccc2)C(c2ccccc2)NC(=O)N1CCCC(=O)O` (stereo not shown) is -15.9%.
Regarding `COc1ccc(CC(=O)NC2CCN(Cc3nnnn3C(C)(C)C)CC2)cc1OC`, the “hERG current change (%, negative = inhibition) at 10uM” value is given as 20.7%.
As to `N#Cc1c(/N=C/c2ccc(-c3ccc(C(=O)O)c(Cl)c3)o2)sc2c1CCCC2`, the “hERG current change (%, negative = inhibition) at 10uM” value came out at 17.2%.
For `COCCOc1cc(-n2cccc2)c(Cl)cc1Cl`, the “hERG current change (%, negative = inhibition) at 10uM” value is -2.33%.
In the case of `NC(=O)c1cc([N+](=O)[O-])ccc1NCc1cccc([N+](=O)[O-])c1` it was -9.38%.
